According to the supplement of paper PMC11417369:
± gives the standard deviation of the averaged measurements. The list shows a part of the results.

system: PfAP2-G AP2 domain (GST-tagged); assay: gcPBM binding intensity (ln(normalized median fluorescence intensity)); higher = stronger DNA binding
In short: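 Probes on an Agilent 4 × 180k array were primer-extended, double-stranded and 36 bp long, taken from intergenic genomic regions, with negative controls added. GST-tagged P. falciparum DNA-binding domains from E. coli, about 25 μg on average, were applied to the array for 1 h in 1× PBS containing 1% milk, 0.2 mg/ml BSA, 0.5% salmon testes DNA and 0.03% Triton X-100. Binding intensity, obtained after Alexa488 anti-GST antibody detection and a 488 nm scan, is the highest Masliner-normalised natural-log median intensity across replicate spots of either probe orientation.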

Row | Sequence | gcPBM binding intensity (ln)
1 | TGTTGATTTATCCTGTGTACGGATATATATCTTTCA [XGTACX_site7826] | 11.1 ± 0.78
2 | TAAAGAATATTATAAACACACACTTTATAAAGAATT [CACACA_site114] | 9.875 ± 0.078
3 | TTCTATTTATATGTGGGTACTAATTTTTTTTCTTTT [XGTACX_site7104] | 11.1 ± 0.64
4 | CTTAAATTAATTTGGGTGCATATATTTGTACACATT [GTGCAC_site9948] | 11.5 ± 1
5 | TCCTTATTTCATATTTTTAAATAATACAAAAAAAAA [CACACA_negctrl_site773] | 9.87 ± 0.38
6 | GAATATTAAATATTATCACACACATAATTATTTCCA [CACACA_site8730] | 9.88 ± 0.15
7 | ATATATATTTATAATCGTACGTACCTAACAATACAA [XGTACX_site4510] | 11.3 ± 0.77
8 | AAATAAAAAAAAGCCTGTACATGTTCATAAATTTTT [XGTACX_site7925] | 10.9 ± 0.5
9 | TATTAATTTTTTTTTTTTTTTTTTTTTTTTTTTTTT [CACACA_negctrl_site1329] | 11 ± 0.61
10 | GTTATAAATAATAAATAAATAATCAAATGAAGAATG [CACACA_negctrl_site653] | 9.87 ± 0.11
11 | TGAATAAAATATTATACACACATATGTATATAACAT [CACACA_site974] | 9.94 ± 0.071
12 | TTAATTTTTTTTTAAACACACATTTTTTTATTTAAG [CACACA_site2738] | 9.91 ± 0.028
13 | TATGCAATAAAATATACACACAATATACTTATATAT [CACACA_site7691] | 9.805 ± 0.064
14 | TTTATTTTCCAAAGGGTGCACATAGTTAAAACGATA [GTGCAC_site9855] | 10.8 ± 0.86
15 | AGGAGGATAGTTCACAGTACCCAGGAAATCTGCGGA [XGTACX_site4928] | 10.7 ± 0.4
16 | GCTATAAATATAATCACACATAAATATATAATATAT [CACACA_site5144] | 9.765 ± 0.035
17 | ATAAATATACCAATCGGTACACATTTATACAAACAA [XGTACX_site7484] | 11 ± 0.64
18 | AATAAATACACATACACACACGACGCTAGTATATGT [CACACA_site6627] | 10 ± 0.16
19 | AGAATAAATATGTGGTGTTATAGTATTAATGTTAAT [TGCATGCA_negctrl_site62] | 10 ± 0.099

Row | Sequence | gcPBM binding intensity (ln)
20 | AACAGGTCATAATTTACACACTATATATTTTATTAT [CACACA_site670] | 10.1 ± 0.11
21 | TAACATATGGGACACACATGCAACTGTTATATGTCC [TGCATGCA_site959] | 10.8 ± 0.21
22 | AGAAAACATATGTTTTGTACTTAAGAAAAAAAAAAA [XGTACX_site4231] | 11 ± 0.68
23 | ATCTATATTCATAATACACACATTCTGTAGCATTAT [CACACA_site7058] | 10.02 ± 0.035
24 | TGATTAATTTTTAAATGTACTTAAAAATATACTTAT [XGTACX_site2872] | 11.2 ± 0.93
25 | TATATCATATAAAACCGTACATACATACTTAATTGT [XGTACX_site6822] | 10.9 ± 0.59
26 | AAAAAAAAATTAAAATGTACACATAAAAAAAAAAAA [XGTACX_site794] | 11.3 ± 0.81
27 | AAAAATAAATAAATATGTACATATATACATATATAT [XGTACX_site5892] | 11 ± 0.51
28 | TTTTATATGTTATATACACACATATAAATAAATATA [CACACA_site7418] | 9.915 ± 0.064
29 | TGATGAAAATCTACATGAATGTTTTTATATCTATAT [GTGCAC_negctrl_site139] | 9.52 ± 0.2
30 | TACAAATATATATGCACACACATATACATACAGATA [CACACA_site5238] | 10.1 ± 0.3
31 | CATATATACGCATACACACACACACCCACACCCACA [CACACA_site1725] | 10.6 ± 0.52
32 | GATAAAATCACTGGTGCATGTAGATATATAATATTA [TGCATGCA_site589] | 10.1 ± 0.17
33 | ATATGCTTATTGTAAAGTACATTATTATTTTTCCTA [XGTACX_site5479] | 10.9 ± 0.54
34 | AATTAACAAAAACACACACACACACCGACAAAAAAA [CACACA_site4444] | 10.2 ± 0.27
35 | TATTTATACCTATACACACACACACGGATATTTATA [CACACA_site7123] | 10.3 ± 0.2
36 | TATTTTGATTATTCAGTGTATAAATATATATATATA [CACACA_negctrl_site545] | 10 ± 0.34
37 | ATGAATAAATAAGACACACACGAAAATAAGTAAAAA [CACACA_site4216] | 10.2 ± 0.13
38 | TAAAAAAAAATATATAAACACACATATTTATATACA [CACACA_site8469] | 9.58 ± 0.14

Row | Sequence | gcPBM binding intensity (ln)
39 | AATATATTGTTTCCTGATATTAAATTCAATTTAATG [GTGCAC_negctrl_site22] | 9.93 ± 0.014
40 | TAAAGAGAGACATCAACACACATACGTATGTATAGA [CACACA_site4896] | 9.99 ± 0.18
41 | ATTTACCTATATATTTGTACTTACATAATGCTACCT [XGTACX_site2693] | 11.1 ± 0.57
42 | CACGCATACAGACACACACACACACCGATATATATA [CACACA_site8113] | 10.3 ± 0.28
43 | CATGAAAATATTATGTGTACTTAATGCACATTCAAA [XGTACX_site1952] | 11.3 ± 1
44 | CCAATGTTTTCTTGTGTACACATCATTAAAGAAAAA [CACACA_site5300] | 11.6 ± 0.88
45 | ATTCTATATGAAAAATGTACAAATAAAAATTCTAAG [XGTACX_site8900] | 10.9 ± 0.59
46 | CTCTTCATATATAATTGTACACACAAAAACGACATT [XGTACX_site4287] | 11.4 ± 0.95
47 | AAAAAAAAACAAAAAAGTACAAAATAAAAATACGTT [XGTACX_site4566] | 11.3 ± 0.83
48 | CCTATCCATGCATATACACACATATCTATTTATATA [CACACA_site6886] | 10.1 ± 0.078
49 | TATATATATTTTGGCTGTACATCAGCGTATATTTTT [XGTACX_site3233] | 10.8 ± 0.58
50 | AATAAATATATACATTGTACATATATAATATATATA [XGTACX_site1458] | 10.9 ± 0.6
51 | TAAATTATAATATGCACACAAAATGTTATATTAAAA [CACACA_site376] | 9.97 ± 0.26
52 | ATGGATAATAAGTTTACACACAAAAAAAAAGAAAAA [CACACA_site861] | 10.1 ± 0.33
53 | AAAAAAAAATTGTGTACACATAATTATATCATATGT [CACACA_site4500] | 11.7 ± 0.89
54 | ATTAAATAAACCATTACACACTTTTATGTTTTGAAA [CACACA_site1143] | 9.995 ± 0.064
55 | TTTTTATTGGTGAATACACACGTATATATATATTAT [CACACA_site8756] | 10.3 ± 0.19
56 | AAAAAAAAAAAATACACACACATAAAAAAAAAAATA [CACACA_site1858] | 9.96 ± 0.41
